# Assay results taken from the RNAGym collection of RNA variant scans (doi:10.7554/elife.90254).
# The source gives no read counts; variants with many changes may rest on few reads.
# B1: LINE1-mini (parent)
# chain: GGCAGAGCUCAACACAGCGUGGCAAAGUGGCUGUGGCUAGACUGCC
# Variants of: B1
# Experiment: self-cleavage, relative activity (ratio to wild type); higher = more cleavage; in vitro, sequencing; the parent is a self-cleaving ribozyme
row,Variant,self-cleavage
1,U20A A25G G30A U32C,0.05
2,G21A G44U C45U C46A,0.03
3,U20G G21U G29A G44U,0.06
4,U20A G30C C45G,0.02
5,G21A C31G G35A,0.01
6,U20A G29U G35C,0.06
7,G21U G29C C45G,1
8,G21U C23U G40A C42A G44U C45U,0.02
9,U20A A25C G44U,0.05
10,G21U G27A G36U,0.08
11,G19U A26U C45U,1.35
12,G21A G30C G33C,0.1
13,U20A U34C G40U,0.02
14,G21U A25C G29A,0.6
15,G21U G27A A39G,0.03
16,U20G C23U A39C,0.06
17,G21U G27A U28A,0.45
18,U20C U34C A39U,0.16
19,U20G C31A G36C,0.03
20,U20C G29C G36A C37U,0
21,G21C A24C U43C,0.12
22,G21C C23G U38G,0.01
23,G19U U20A A41C U43G C46A,0.01
24,U20A A24G G44A,0.09

row,Variant,self-cleavage
1,U20A U34C U38G G40C U43C,0.02
2,G19U G27C G36C C42G,0.03
3,G19C U32G G44C,0.04
4,G21C G22C U43C,0.03
5,U20C G27C U43A,0.13
6,G21C A25G C31U C37U A41G,0.02
7,U20G C23G A25U G40C C45U,0.12
8,U20A G29U A39G A41U,0.01
9,U20G C45A C46U,0.04
10,U20A G36A C45A,0.04
11,U20C C23A U28A C37U,0.01
12,U20G U32A G33U C42U,0.04
13,U20C G22A C31G G35U,0.01
14,G21A C23U A24C G27U,0.99
15,G19U U20G A25G G29A U43C,0.2
16,U20C C31A G33A G35C,0.05
17,U20C G27A U32C C46U,0.03
18,G21U G30C G40A U43G C45A,0.03
19,G21U G33U A41U C46A,0.16
20,G21C U32C C37G,0.03
21,G19U U20C U28A,2.29
22,G21A G33U U34G,0.04
23,G21U G29U C42U,0.51
24,G21U A39U G40C,0.14

row,Variant,self-cleavage
1,G19U U43C C45G,0.39
2,U20G G36A C37U G40C,0.13
3,G21U A25U C37A,0.05
4,G21C G30U C37G U38G G44A,0.01
5,G19C G30C U32G,0.11
6,G21A A24U C31A,0.05
7,G21C U38G A41U,0
8,U20G U28G U43C,0.04
9,U20A A41U C45A,0.11
10,U20A A41U C42A,0.01
11,G21U A24U U34A,0.06
12,G21C G29A C37A,0.02
13,G21C G29A C37G,0.02
14,G21A C23G G29C C31A G36C,0.05
15,G21A C23U A24C,1.22
16,U20A A26C C45G,0.28
17,U20C U28A C46A,0.68
18,G21A U28A C37U G44A,0.03
19,U20A G21C G27A,0.73
20,U20A U32A G35U,0.01
21,G21A A26U C31U,0.42
22,U20C G35C U43A G44U,0.02
23,G19U C31U G35A,0.02
24,G21U A24U A26C,1.2

row,Variant,self-cleavage
1,G21C A24G G27C G40C G44C,0.07
2,G21U C31G C45U,0.02
3,G19U G33C A41C,0.14
4,U20C A24C A25U U28C,0.64
5,G21A G35U U38C C46A,0.05
6,G21U G27C C37U C45U,0.02
7,G21A C23G C31U,0.15
8,U20C G21U G27A C45G,0.09
9,U20G A24C G33U,0.02
10,G21C A26G G44C,0.2
11,G19C G33A G36C G40U,0.03
12,G19U U20A G27C U38A A39C,0.03
13,U20A U28A U43C,0.02
14,U20C U28A G36C,0.06
15,U20C G27C C31G,0.02
16,U20C C31G G33A,0.02
17,G21U A24G G30C,2.76
18,G21A C31U G35C,0.04
19,U20A C23U A26U C31G,0.09
20,G21A G27C G40C,0.26
21,U20A C31U U32G,0.11
22,G21U A26C G35A,0.07
23,U20C G27A U34G,0.07
24,G21A C23G G27A U28C G36A U38G U43A,0

row,Variant,self-cleavage
1,U20A C31U G33A,0.04
2,G19U U32C C42U,0.04
3,G21U G29C G40U,0.03
4,G21U G29U A39U,0.19
5,U20G A41G C46U,0.16
6,G19U G29C G44U C45U,0.08
7,G21C G40C C42G,0.05
8,G21A C31U C42G,0.02
9,G19U G27U C31G,0.2
10,G19U G22A G35C U38A,0.08
11,U20G G27C G35U,0.04
12,G21U A24C U32C G40C C46U,0.01
13,G21U A25U U28C,1.44
14,U20G A25U G29C,0.15
15,G19U A41U U43A,0.02
16,G19U G36U G40C,0.13
17,G21U A24U U38G,0.03
18,U20A U34C A39U C45G,0.01
19,U20A A24G U28C,0.52
20,U20G U32C G35A U43C,0.02
21,G21U A26U G40U,0.2
22,G21U C31A G33C U43G G44U,0.01
23,U20A C23U U28G,1.4
24,G19U A25G G33A A39U,0.06

row,Variant,self-cleavage
1,U20A A25G G36A U38G,0.01
2,G21C U34A C46G,0.18
3,G19C G27C G33A U34C,0.02
4,U20A G30C U38C,0.16
5,U20C A24G G27U,0.61
6,G19C G29U G36U,0.02
7,U20C G36C C37U,0.01
8,G19U G27A C42U,0.83
9,U20A A24G U32A,0.08
10,G19U G29U C42G,0.02
11,G19U G22U C31A C46A,0.42
12,G21C U32C G40U C42A G44A,0.15
13,G21C G22A G30U C31A A41C,0.03
14,G19C G27C G30U G33U G35A U38A,0
15,U20A C37U A39U,0.01
16,G21C G22U C31G A41G,0.03
17,U20C G22C A39U,0.33
18,U20C G22C A39C,0.01
19,U20G A26U A39U A41G,0.05
20,G19C U28A G29C C31A C42G C46A,0.07
21,G21C G30C G40A C42U,0.04
22,G21U G27C C42U,0.29
23,U20A G40C C42G,0.02
24,G21U C37A U43C,0.03

row,Variant,self-cleavage
1,U20C C23A G33A C46A,0.15
2,U20C G22C G35U,0.08
3,G21A C23G G30C,0.35
4,G21A U38C A39C,0.17
5,G21U G27A C42A,0.12
6,G21C A24U A26U,0.99
7,U20G G22A C37U,0.05
8,U20C G30U U32C C42G C46U,0.02
9,U20C U28C G30A A41U,0.41
10,U20G G33A A41G,0.02
11,G21A G30A G33U G36U C42A C45U,0.03
12,G19U G21U G27U G29C,0.32
13,U20G A26C G36U,0
14,G19C G35U G44C,0.14
15,U20C C31G G35U,0.05
16,G21A C31U C37U,0.08
17,G19U G30U C45G,0.1
18,G21A G29C C37G,0.01
19,U20A U32G C42U,0.02
20,U20A A26C G27A,0.5
21,G19C U38A C45A,0.14
22,G19C G33C C46G,0.03
23,G21A G33C C37U,0.04
